# The campaign covered roughly 230,000 compounds. About 3,600 (1.6%) were called active. The inconclusive results got no clear call from the source; some entries with a clear call stand among them for comparison. Calls follow the shape of the dose curve; as a rule, active = well fitted inhibition curve with a large enough effect (not every such curve was filed as active); inconclusive = small, poorly fitted or top-dose-only effect, or another doubt; inactive = no such curve, though single readings can be large or run the other way. Potencies of inconclusive entries are doubtful fits and often do not repeat.
# Target: Lysine-specific demethylase 4E (Homo sapiens) (UniProt B2RXH2)
# UniProt B2RXH2, sequence (B2RXH2 whole entry, looked up, the tested form may be a part): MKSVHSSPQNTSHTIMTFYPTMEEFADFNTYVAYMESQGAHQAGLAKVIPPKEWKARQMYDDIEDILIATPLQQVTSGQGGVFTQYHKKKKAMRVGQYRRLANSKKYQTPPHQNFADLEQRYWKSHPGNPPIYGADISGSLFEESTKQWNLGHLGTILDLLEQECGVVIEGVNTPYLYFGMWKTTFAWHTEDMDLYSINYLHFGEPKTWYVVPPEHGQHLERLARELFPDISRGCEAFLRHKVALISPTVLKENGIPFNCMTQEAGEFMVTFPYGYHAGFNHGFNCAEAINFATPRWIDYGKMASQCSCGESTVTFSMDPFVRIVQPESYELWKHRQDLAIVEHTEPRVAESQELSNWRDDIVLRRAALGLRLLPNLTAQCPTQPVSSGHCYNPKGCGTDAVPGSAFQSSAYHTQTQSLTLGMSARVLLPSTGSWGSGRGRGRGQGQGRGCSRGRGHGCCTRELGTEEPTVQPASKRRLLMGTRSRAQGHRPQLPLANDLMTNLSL
# Experiment: qHTS Assay for Inhibitors of Human Jumonji Domain Containing 2E (JMJD2E)
# Conditions: JMJD2E catalytic domain, FDH-coupled NADH fluorescence (FDH is formaldehyde dehydrogenase); series mostly up to 57.1 µM
# Also: nearly all actives have a fitted effect of over 50% in size.
# Potency is read from the fitted curve at half-maximal effect; tags tell the direction and shape of the fitted curve.
row,SMILES,Potency
1,CCn1cc(-c2ccnc3cc(C(=O)O)nn23)c(C)n1,"inconclusive: 35.5 µM [inhibitor, partial curve]"
2,CCCOc1ccc(N2C(=O)CC(N3CCN(CCN=CC4C(=O)CC(C)(C)CC4=O)CC3)C2=O)cc1 (stereo unspecified),inactive
3,CCNC(=S)N(Cc1ccco1)Cc1cc2cc3c(cc2[nH]c1=O)OCCO3,"inconclusive: 25.1 µM [inhibitor, partial curve]"
4,CSc1nc2cc3c(cc2n1C(=O)c1ccc(C)cc1)OCCO3,"inconclusive: 39.8 µM [inhibitor, single point]"
5,Cc1ccccc1-c1nc(S(=O)(=O)c2ccc(Br)cc2)c(NCc2cccnc2)o1,"inconclusive: 35.5 µM [inhibitor, single point]"
6,COC1/C=C/OC2(C)Oc3c(C)c(O)c4c(O)c(c(/C=N/N5CCN(C)CC5)c(O)c4c3C2=O)NC(=O)/C(C)=C/C=C/C(C)C(O)C(C)C(O)C(C)C(OC(C)=O)C1C (stereo unspecified),active: 8.91 µM
7,Cc1ccc(S(=O)(=O)CCc2nc3ccccc3s2)cc1,"inconclusive: 39.8 µM [inhibitor, single point]"
8,COCCn1cc(C(=O)N2CCC(C)CC2)c2c3ccccc3n(C)c2c1=O,"inconclusive: 28.2 µM [inhibitor, partial curve]"
9,O=C(N[C@H](CO)[C@H](O)c1ccc([N+](=O)[O-])cc1)C(Cl)Cl,inactive
10,CCCCc1ccc(NC(=O)N[C@H](C(=O)O)C(C)CC)cc1 (stereo partly specified),inactive
11,COc1ccc(S(=O)(=O)N2CCCC(C(=O)NC3CCCCC3)C2)cc1 (stereo unspecified),inactive
12,O=C(Nc1ccc(Cl)c(S(=O)(=O)N2CCOCC2)c1)c1ccc(OCC2CCCO2)cc1 (stereo unspecified),"inconclusive: 39.8 µM [inhibitor, single point]"
13,COC(=O)CSc1ccc2nnc(CCNS(=O)(=O)c3ccc(C)cc3)n2n1,"inconclusive: 35.5 µM [inhibitor, single point]"
14,Cc1nc2n(n1)C(c1ccccc1)C1=C(CC(c3ccco3)CC1=O)N2 (stereo unspecified),inactive
15,COc1cc(C(=O)CSc2nncn2C)cc(OC)c1OC,"inconclusive: 39.8 µM [inhibitor, single point]"
16,Cc1cc(N)n(-c2ccccn2)n1,inactive
17,CCOc1ccccc1Nc1nnc(SCC(=O)Nc2nc(-c3ccc(OC)cc3)cs2)s1,inactive
18,Cc1onc(-c2ccccc2)c1C1=N/C(=C\c2ccccc2F)C(=O)O1,inactive
19,COc1cc(OC)c(C2=NOC(C(=O)N3CCc4ccccc4C3)C2)cc1Cl (stereo unspecified),"inconclusive: 39.8 µM [inhibitor, single point]"
20,Cn1c(NC(=O)CCc2ccccc2)cc(=O)n(C)c1=O,inactive
21,CCN(CC)S(=O)(=O)c1cc(NC(=O)Cn2ncc(Cl)c(Cl)c2=O)ccc1C,inactive
22,CCCc1ccc2c(N)c(C#N)sc2n1,"inconclusive: 25.1 µM [inhibitor, single point]"
23,O=C(N/N=C/c1cccc(OC2CSC2)c1)c1ccccc1O,"inconclusive: 39.8 µM [inhibitor, single point]"

row,SMILES,Potency
1,Cc1ccccc1NCC(=O)N/N=C\C=C\c1cccc([N+](=O)[O-])c1,"inconclusive: 25.1 µM [inhibitor, single point]"
2,CCOC(=O)C1CCN(S(=O)(=O)c2ccc(Cl)cc2OC)CC1,inactive
3,O=S(=O)(Nc1nc2cc3c(cc2nc1Cl)OCCO3)c1ccccc1,"inconclusive: 31.6 µM [inhibitor, partial curve]"
4,COc1ccc(C(C#N)=C2C=CC(=NO)C=C2)cc1,inactive
5,O=[N+]([O-])c1cccc2c(Cl)ccnc12,"inconclusive: 22.4 µM [inhibitor, partial curve]"
6,O=C(c1ccccc1)N1CCN(Cc2cccc(Oc3ccccc3)c2)CC1,"inconclusive: 31.6 µM [inhibitor, single point]"
7,CC1CCCN(CCOc2ccc3ccccc3c2Br)C1 (stereo unspecified),"inconclusive: 15.8 µM [inhibitor, partial curve, poor fit]"
8,Cc1ccc(N=Cc2sc(O)c3ccccc23)cc1,inactive
9,Cc1cc(C(F)(F)F)nn1Cc1n[nH]c(=S)n1-c1ccc(F)cc1,"inconclusive: 39.8 µM [inhibitor, single point]"
10,O=C(CSc1nnc(CNC(=O)c2ccco2)o1)c1ccccc1,inactive
11,Cc1cc(C)nc(-n2nc(C)c3c(C(F)F)cc(C)nc32)n1,"inconclusive: 31.6 µM [inhibitor, single point]"
12,Cc1cc(C)cc(N(CCC(=O)Nc2nnc(C3CC3)s2)S(=O)(=O)c2ccc(Cl)cc2)c1,inactive
13,COCCn1c(SCC(=O)Nc2sccc2C(N)=O)nc2cc(Cl)ccc2c1=O,"inconclusive: 25.1 µM [inhibitor, partial curve]"
14,CCC(=O)OCC(=O)C1(OC(=O)CC)C(C)CC2C3CCC4=CC(=O)C=CC4(C)C3(Cl)C(O)CC21C (stereo unspecified),inactive
15,Cn1c2ccccc2c2cc(C(=O)OCC(=O)N3CC(=O)Nc4ccccc43)sc21,"inconclusive: 14.1 µM [inhibitor, partial curve]"
16,O=C(NCC1CC1)c1ccc2c3n(nc2c1)-c1ccccc1CO3,"inconclusive: 25.1 µM [inhibitor, partial curve]"
17,CCOc1ccc(OCC)c(C2C(C#N)=C(N)N(c3cccnc3)C3=C2C(=O)CC(C)(C)C3)c1 (stereo unspecified),"inconclusive: 14.1 µM [inhibitor, partial curve]"
18,Cc1ccc2c(c1)cc(CN(Cc1ccc3c(c1)OCO3)C(=O)c1cnccn1)c1nnnn12,inactive
19,COCc1ccc(C(=O)NC(C)c2cnn(-c3ccccc3C)c2C)o1 (stereo unspecified),inactive
20,O=C1CCCC2=C1C(c1ccco1)Nc1ccc(C(=O)c3ccccc3)cc1N2 (stereo unspecified),inactive
21,Oc1cccc2ccc(Nc3ccccn3)nc12,"inconclusive: 39.8 µM [inhibitor, single point]"
22,COc1ccc(/C=C(\C#N)C(=O)NCC2CCCO2)cc1OC (stereo unspecified),"inconclusive: 39.8 µM [inhibitor, single point]"
23,Cc1ccccc1CN(C)CC(=O)Nc1cccc(S(=O)(=O)N(C)c2ccccc2)c1,"inconclusive: 39.8 µM [inhibitor, single point]"
